{
  "source": "PubChem BioAssay AID588453",
  "about": "(National Center for Advancing Translational Sciences (NCATS), 2011)",
  "note": "The whole screen tested about 390,000 compounds, of which about 4,000 (1%) were called active. The inconclusive results got no clear call from the source; some entries with a clear call stand among them for comparison. The call rests on the fitted dose curve; in most records, active means well fitted inhibition curve with a large enough effect; inconclusive means small, poorly fitted or top-dose-only effect; inactive means no such curve, though single readings can be large or run the other way. Potencies of inconclusive entries are doubtful fits and often do not repeat. On the % scale 0 is the no-effect control and ±100 the full control effect; potency means the concentration at half of the fitted maximal effect; tags describe the fitted curve by direction and shape.",
  "data": [
    {"biological_target": "Thioredoxin reductase 1, cytoplasmic (Rattus norvegicus) (UniProt O89049)", "sequence (O89049 whole entry, looked up)": "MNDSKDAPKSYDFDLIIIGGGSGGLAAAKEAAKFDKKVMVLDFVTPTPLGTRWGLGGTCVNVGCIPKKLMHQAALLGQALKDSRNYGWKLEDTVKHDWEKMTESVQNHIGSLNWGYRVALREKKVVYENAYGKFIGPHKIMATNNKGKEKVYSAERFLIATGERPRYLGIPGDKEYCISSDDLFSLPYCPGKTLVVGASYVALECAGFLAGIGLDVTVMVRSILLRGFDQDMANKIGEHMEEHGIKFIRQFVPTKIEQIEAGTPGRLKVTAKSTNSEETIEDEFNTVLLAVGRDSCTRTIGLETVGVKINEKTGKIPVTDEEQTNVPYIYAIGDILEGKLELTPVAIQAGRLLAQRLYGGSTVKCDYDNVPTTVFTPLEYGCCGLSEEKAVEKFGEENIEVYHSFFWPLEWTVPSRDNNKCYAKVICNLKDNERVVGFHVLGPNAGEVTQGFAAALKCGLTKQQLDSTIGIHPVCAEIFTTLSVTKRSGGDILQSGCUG", "assay": "qHTS Assay for Inhibitors of Mammalian Selenoprotein Thioredoxin Reductase 1 (TrxR1): qHTS; further: nearly all actives have a fitted effect of over 65% in size", "conditions": "recombinant rTrxR1, NADPH fluorescence consumption, selenite substrate; series mostly up to 114 µM; activity change, negative = inhibition: at the top concentration", "procedure,_shortened": "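Rat TrxR1 (90 nM in the dispensed reagent) was pre-reduced with 400 uM NADPH for 5 min at room temperature, then incubated with compound for 15 min. After 400 uM selenite was added, NADPH fluorescence (Ex 340/Em 450 nm) was followed for 8 min.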", "values": [
      {"molecule": "O=C(NC12CC3CC(CC(C3)C1)C2)c1ccc(-c2ccc(Br)cc2)o1", "Potency": "inconclusive: 56.2 µM [inhibitor, partial curve]"},
      {"molecule": "O=C(c1ccccc1)N1CCN(C2C3CC4CC(C3)CC2C4)CC1", "note": "(stereo not drawn)", "activity change, negative = inhibition": "inactive: -14.1%"},
      {"molecule": "CC(=O)c1ccc(NC(=O)CCc2c(C)nc3c(c(C)nn3-c3ccc(C)cc3)c2C)cc1", "activity change, negative = inhibition": "inactive: 3.84%"},
      {"molecule": "OC(CN1CCN(c2ccccn2)CC1)Cn1c2ccc(Cl)cc2c2cc(Cl)ccc21", "note": "(stereo not drawn)", "Potency": "inconclusive: 70.8 µM [inhibitor, single point]"},
      {"molecule": "O=C(CSc1nnc(-c2cccnc2)o1)c1cc2ccccc2oc1=O", "activity change, negative = inhibition": "inactive: -8.61% [at 57.1 µM]"},
      {"molecule": "COc1ccc(CCn2c3c(c(=O)[nH]c2=S)CN(Cc2ccccc2)CN3)cc1OC", "Potency": "inconclusive: 56.2 µM [inhibitor, partial curve, poor fit]"},
      {"molecule": "COc1ccccc1/C=C/c1nc(S(=O)(=O)c2ccccc2)c(N(C)C)o1", "Potency": "inconclusive: 10 µM [inhibitor, full curve]"},
      {"molecule": "O=C(COc1ccccc1Cl)Nc1cc(-c2ccccc2F)nn1-c1ccccc1", "activity change, negative = inhibition": "inactive: 18.4% [at 57.1 µM]"},
      {"molecule": "O=C(/C=C/c1ccccn1)c1cc(Br)ccc1O", "Potency": "inconclusive: 17.8 µM [inhibitor, full curve]"},
      {"molecule": "Cc1nc(C(C)NC(=O)c2cc(COc3ccc(F)c(F)c3)on2)cs1", "note": "(stereo not drawn)", "activity change, negative = inhibition": "inactive: -3.23%"},
      {"molecule": "COc1cccc(NC(=S)Nc2ccc(F)cc2)c1", "activity change, negative = inhibition": "inactive: -12%"},
      {"molecule": "Cc1c(-c2ccc(F)cc2)nc(N)c(C#N)c1-c1ccco1", "Potency": "inconclusive: 56.2 µM [inhibitor, partial curve, poor fit]"},
      {"molecule": "Cc1ccc(NC(=O)/C=C\\C(=O)NCC(=O)O)cc1C", "Potency": "active: 44.7 µM"},
      {"molecule": "Cc1nc([N+](=O)[O-])c(Br)n1CC(=O)c1ccc2ccccc2c1", "Potency": "active: 11.2 µM"},
      {"molecule": "Cc1ccc(-c2c3c(=O)n(C)c(=O)n(C)c3cn2CCCN2CCOCC2)cc1", "Potency": "inconclusive: 25.1 µM [inhibitor, single point]"},
      {"molecule": "Cc1cccc(-c2nc3c(c(SCC(=O)N4CCOCC4)n2)Cc2c(CO)cnc(C)c2O3)c1", "Potency": "inconclusive: 79.4 µM [inhibitor, partial curve]"},
      {"molecule": "CC[C@@H](C)[C@H]1O[C@]2(CC[C@H]1C)C[C@@H]1C[C@@H](CC=C(C)[C@@H](O[C@H]3C[C@H](OC)[C@@H](O[C@H]4C[C@H](OC)[C@@H](O)[C@H](C)O4)[C@H](C)O3)[C@@H](C)C=CC=C3CO[C@@H]4[C@H](O)C(C)=C[C@@H](C(=O)O1)[C@]34O)O2", "Potency": "inconclusive: 11.2 µM [inhibitor, partial curve]"},
      {"molecule": "Cc1oc2ccc(O)c(CN(C)Cc3ccccc3)c2c1C(=O)Nc1ccccc1", "activity change, negative = inhibition": "inactive: 7.52%"},
      {"molecule": "CCOc1ccc(N=C(C)C2=C(O)c3ccccc3C2=O)cc1", "Potency": "inconclusive: 89.1 µM [inhibitor, partial curve, poor fit]"},
      {"molecule": "CN(C(=O)c1ccno1)c1nnc(-c2ccccn2)s1", "Potency": "active: 20 µM"},
      {"molecule": "Oc1ccc(CNc2ccc(F)cc2)c2cccnc12", "Potency": "active: 0.631 µM"},
      {"molecule": "O=C1NC(=S)SC1=Cc1cccs1", "Potency": "inconclusive: 79.4 µM [inhibitor, partial curve]"},
      {"molecule": "Cc1ccc(S(=O)(=O)N(C)C)cc1NC(=O)COC(=O)c1sc2cc(Cl)ccc2c1Cl", "Potency": "active: 35.5 µM"},
      {"molecule": "COc1ccc(N(CC(=O)NCCSCc2ccco2)S(=O)(=O)c2ccccc2)cc1OC", "Potency": "inconclusive: 79.4 µM [inhibitor, single point]"},
      {"molecule": "N#CC1=C(N)N(c2ccccc2)C2=C(C(=O)CCC2)C1c1ccsc1", "note": "(stereo not drawn)", "Potency": "inconclusive: 28.2 µM [inhibitor, single point]"},
      {"molecule": "Cc1ccc(NC(=O)CSCC(=O)Nc2ncc3c(n2)CC(c2ccco2)CC3=O)cc1", "note": "(stereo not drawn)", "Potency": "inconclusive: 12.6 µM [inhibitor, full curve]"},
      {"molecule": "O=C(O)CC(NC(=S)NCc1ccccc1)C(=O)O", "note": "(stereo not drawn)", "Potency": "inconclusive: 79.4 µM [inhibitor, single point]"},
      {"molecule": "CCCC/C=C/[C@H](c1ccccc1)[C@H](CO)Cc1cnc2ccccc2c1", "Potency": "inconclusive: 63.1 µM [inhibitor, single point]"},
      {"molecule": "CN1CCN(C(=S)NC(=O)/C=C/c2ccccc2Cl)CC1", "activity change, negative = inhibition": "inactive: 12.8% [at 57.1 µM]"},
      {"molecule": "CC1(OC(=O)c2ccc(Cl)nc2)C(=O)C=C2C=C3CCCN3C=C2C1=O", "note": "(stereo not drawn)", "Potency": "inconclusive: 79.4 µM [inhibitor, single point]"},
      {"molecule": "O=C(c1ccco1)N1CCN(c2nnc(-c3ccccc3)c3ccccc23)CC1", "Potency": "inconclusive: 39.8 µM [inhibitor, single point]"},
      {"molecule": "COc1cc(OC)cc(C(=O)Nc2nnc(NC(=S)Nc3ccccc3)s2)c1", "Potency": "inconclusive: 31.6 µM [inhibitor, partial curve]"},
      {"molecule": "CN(C(=O)c1cc2nc(-c3ccco3)cc(C(F)(F)F)n2n1)c1ccc(OC(F)(F)Cl)cc1", "activity change, negative = inhibition": "inactive: -35.5%"},
      {"molecule": "CCOc1ccc(/C(O)=C/C(=O)C(=O)Nc2ccc(S(=O)(=O)NC(C)=O)cc2)cc1", "Potency": "inconclusive: 79.4 µM [inhibitor, single point]"},
      {"molecule": "COc1ccc(/C=N/NC(=O)C(=O)N2CCCCCC2)cc1", "Potency": "inconclusive: 100 µM [inhibitor, single point]"},
      {"molecule": "CCN(Cc1ccncc1)C(=O)C(CO)c1ccccc1", "note": "(stereo not drawn)", "Potency": "inconclusive: 0.112 µM [inhibitor, full curve, poor fit]"},
      {"molecule": "O=C(COc1ccccc1)NC(=S)Nc1cccc([N+](=O)[O-])c1", "Potency": "inconclusive: 17.8 µM [inhibitor, full curve, poor fit]"},
      {"molecule": "Cc1ccccc1NC(=O)CSc1ccc(-c2ccco2)nn1", "Potency": "inconclusive: 70.8 µM [inhibitor, partial curve]"},
      {"molecule": "Cc1ccc(S(=O)(=O)/N=C2/C=C(C3C(=O)CC(C)(C)CC3=O)C(=O)c3ccccc32)cc1", "Potency": "active: 17.8 µM"},
      {"molecule": "Cc1ccc(S(=O)(=O)Cn2nnnc2C(c2ccccc2)N2CCN(c3ccccc3)CC2)cc1", "note": "(stereo not drawn)", "Potency": "inconclusive: 39.8 µM [inhibitor, single point]"},
      {"molecule": "COc1ccc(Cl)cc1NC(=O)CC1CCCC1", "activity change, negative = inhibition": "inactive: 1.41%"},
      {"molecule": "Cc1cccc(-n2c(=S)[nH]c3sc4c(c3c2=O)CCc2ccccc2-4)c1", "Potency": "inconclusive: 2.51 µM [inhibitor, full curve]"},
      {"molecule": "Cc1nn2c(-c3cccc(NC(=O)CN4CCOCC4)c3)nnc2c2ccccc12", "Potency": "inconclusive: 22.4 µM [inhibitor, partial curve]"},
      {"molecule": "Cc1nnc(NC(=O)c2nc(S(=O)(=O)Cc3ccccc3C)ncc2Cl)s1", "Potency": "active: 50.1 µM"},
      {"molecule": "CC(=O)c1cc(CN2CCN(CCC(C)C)C(CCO)C2)cs1", "note": "(stereo not drawn)", "Potency": "inconclusive: 79.4 µM [inhibitor, single point]"},
      {"molecule": "Cc1cc(C)n(-c2ccc(C(=O)OCC(=O)NC(c3ccccc3)c3ccccc3)cc2)n1", "Potency": "inconclusive: 89.1 µM [inhibitor, single point]"},
      {"molecule": "Cc1nc([N+](=O)[O-])cn1CC(=O)c1ccc2c(c1)OCCCO2", "activity change, negative = inhibition": "inactive: 6.9%"},
      {"molecule": "O=C(Nc1ccc(Nc2ccncc2)cc1)c1ccc([N+](=O)[O-])cc1", "activity change, negative = inhibition": "inactive: -3.97% [at 57.1 µM]"},
      {"molecule": "CCOC(=O)c1cccc(NC(=O)C2CCCN(S(=O)(=O)c3cnc[nH]3)C2)c1", "note": "(stereo not drawn)", "Potency": "inconclusive: 89.1 µM [inhibitor, single point]"},
      {"molecule": "CCC(=O)N1CCc2cc(Br)cc(S(=O)(=O)NCc3ccco3)c21", "Potency": "inconclusive: 17.8 µM [inhibitor, partial curve]"},
      {"molecule": "Cc1ccc(-c2cc(C(=O)N3CC(C)CC(C)C3)c3ccccc3n2)o1", "note": "(stereo not drawn)", "Potency": "inconclusive: 20 µM [inhibitor, single point]"},
      {"molecule": "O=C(CCl)Nc1ccc(S(=O)(=O)Nc2nccs2)cc1", "Potency": "inconclusive: 14.1 µM [inhibitor, full curve]"},
      {"molecule": "C/C(=C\\C(=O)c1ccc(Br)cc1)NCc1ccc2c(c1)OCO2", "activity change, negative = inhibition": "inactive: -1.97% [at 11.4 µM]"},
      {"molecule": "O=C(N=C1c2ccccc2CN1c1ccccc1)c1cccc([N+](=O)[O-])c1", "Potency": "inconclusive: 70.8 µM [inhibitor, partial curve]"},
      {"molecule": "CC(=O)c1sc(NC(=O)CCS(=O)(=O)c2ccc(Cl)cc2)nc1C", "Potency": "inconclusive: 79.4 µM [inhibitor, partial curve]"},
      {"molecule": "CC(C)C/C(O)=C/c1nc2cc(Cl)ccc2oc1=O", "Potency": "inconclusive: 50.1 µM [inhibitor, partial curve]"},
      {"molecule": "CC(C)(C)c1ccc(O)c(N=Cc2cc(Br)ccc2O)c1", "activity change, negative = inhibition": "inactive: 5.39% [at 57.1 µM]"},
      {"molecule": "S=c1[nH]c2cc(Cl)ccc2s1", "activity change, negative = inhibition": "inactive: -6.87%"},
      {"molecule": "CC(=O)c1cc(NC(=O)c2ccccc2)c(=O)oc1/C=C/N(C)C", "Potency": "inconclusive: 70.8 µM [inhibitor, single point]"},
      {"molecule": "CCOC(=O)C1CCN(Cc2cc(C(C)(C)C)c(O)c(C(C)(C)C)c2)CC1", "Potency": "inconclusive: 79.4 µM [inhibitor, partial curve]"},
      {"molecule": "O=C(Cn1c(=O)n(Cc2ccco2)c(=O)c2c3c(sc21)CCCCC3)Nc1ccccc1", "Potency": "inconclusive: 12.6 µM [inhibitor, full curve]"},
      {"molecule": "Cc1onc(-c2ccccc2)c1C(=O)NC(=S)NNC(=O)c1ccc(O)cc1O", "Potency": "inconclusive: 56.2 µM [inhibitor, single point]"},
      {"molecule": "Cc1ccc2oc(=O)c3cnn(CC(=O)NCc4ccccc4Cl)c3c2c1", "activity change, negative = inhibition": "inactive: 23.3%"},
      {"molecule": "CN1C(=O)/C(=C/c2ccco2)SC1=Nc1ccc(N2CCOCC2)cc1", "Potency": "inconclusive: 89.1 µM [inhibitor, partial curve, poor fit]"},
      {"molecule": "Cc1ccc(N2C(=O)C3C4C=CC(CNC(=S)Nc5ccc(Cl)cc5)(O4)C3C2=O)cc1", "note": "(stereo not drawn)", "Potency": "active: 28.2 µM"},
      {"molecule": "CCOC(=O)C1(Cc2cccc(OC)c2)CCN(Cc2ccccc2)CC1", "activity change, negative = inhibition": "inactive: 7.41% [at 57.1 µM]"},
      {"molecule": "CSc1nsc(/C=C/Nc2ccc(Cl)cc2)c1C#N", "Potency": "inconclusive: 70.8 µM [inhibitor, partial curve, poor fit]"},
      {"molecule": "O=C(Cn1ncc(Cl)c(Cl)c1=O)NC1CCCCC1", "Potency": "active: 56.2 µM"}
    ]}
  ]
}
